Measured values taken from article PMC4242493.
Some of the results follow. The list includes weakly bound sequences.

target: MaxL homodimer (UniProt P61244); test: universal protein-binding microarray (PBM); settings: PBS-based mixture, 10 nM His-tagged protein dimer, 2% milk, 200 ng/uL BSA, 50 ng/uL salmon testes DNA, 0.02% TX-100; detection with Alexa 488 anti-His …; high values mean tight binding; most listed sequences are background and not binding sites; double strand, one strand shown
Chain of UniProt P61244 (P61244 whole entry): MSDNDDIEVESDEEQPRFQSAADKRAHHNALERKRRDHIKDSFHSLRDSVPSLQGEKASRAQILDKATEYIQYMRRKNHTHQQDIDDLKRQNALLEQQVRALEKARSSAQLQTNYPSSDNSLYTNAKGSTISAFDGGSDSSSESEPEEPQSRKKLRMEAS

Row | Sequence | binding signal (normalized occupancy)
1 | CAGCCGCA | 0.0718
2 | CACCTAAG | 0.0743
3 | CGGTTCAA | 0.0686
4 | ACCAGGCG | 0.0829
5 | CGTAGTTC | 0.0706
6 | CGGAAGAC | 0.068
7 | CTATTTAC | 0.0763
8 | AAGGCGTG | 0.0901
9 | GCACTTGA | 0.073
10 | GCACTACC | 0.0774
11 | ACGGTCAC | 0.0774
12 | ACGTGTCG | 0.106
13 | CAGTTACA | 0.0725
14 | AGTCGAGA | 0.071
15 | CTTTATGA | 0.0763
16 | AACAATGG | 0.0787
17 | GGGGATAC | 0.0797
18 | GACTGTCC | 0.0743
19 | GGTGTAAA | 0.0851
20 | CGTTAATA | 0.0789
21 | TCTAGGAA | 0.0765
22 | GACGTAGC | 0.0744
23 | CATTTAGA | 0.0764
24 | ATGGGCAA | 0.0785
25 | GCCCATCA | 0.0786

Row | Sequence | binding signal (normalized occupancy)
26 | GCCTACGC | 0.0737
27 | TTGCCCAA | 0.07
28 | ACCCTTCT | 0.0744
29 | ATCCGTGG | 0.078
30 | ATCGTACG | 0.0798
31 | CCATCCAA | 0.0825
32 | CAAAGCTA | 0.07
33 | CGATGAGC | 0.0714
34 | ACCGTTTC | 0.0728
35 | AGATTGCG | 0.0743
36 | GAAAAAGA | 0.0746
37 | GTAATCTA | 0.0799
38 | GTCGTCCA | 0.0757
39 | CCCAGGTC | 0.0779
40 | AGCCACTC | 0.0757
41 | ACGACATG | 0.088
42 | AGGACAAC | 0.0727
43 | AAGGGACC | 0.068
44 | CTCTGTGC | 0.0769
45 | CATATGTC | 0.0943
46 | AATTACCG | 0.0742
47 | AGGTCACG | 0.082
48 | GCGGGGAA | 0.081
49 | AAATCGGG | 0.0734
50 | GAATTTGC | 0.072

Row | Sequence | binding signal (normalized occupancy)
51 | ATGTCCCA | 0.0746
52 | AACGTTTC | 0.0739
53 | CTGGTTCC | 0.072
54 | CTGGCGTC | 0.0668
55 | GTAAGCAC | 0.0777
56 | AAGAGGGG | 0.0703
57 | GCGCTACC | 0.0751
58 | GTCCCGGA | 0.0658
59 | CACACTTA | 0.0817
60 | AGTTCCTC | 0.0733
61 | AAACTAGG | 0.0774
62 | CTTAACAA | 0.0707
63 | GATCCTCC | 0.0751
64 | CGTACCGC | 0.0699
65 | ACAACGGC | 0.0735
66 | GTGTGCGA | 0.082
67 | CACATCGA | 0.0843
68 | CCCCTCCA | 0.0846
69 | GCCTCCAA | 0.0672
70 | AATTAACA | 0.0755
71 | CGAGTCCG | 0.0718
72 | AGATTCTA | 0.0793
73 | CCAAATAG | 0.0764
74 | AACGATGT | 0.0802
75 | AGTAGCAT | 0.0829

Row | Sequence | binding signal (normalized occupancy)
76 | ATGGTAAG | 0.0773
77 | CGCTAACA | 0.082
78 | AAGACCTC | 0.07
79 | CCATACCC | 0.081
80 | CCTTCTCA | 0.0714
81 | TCGTGTCA | 0.0857
82 | TATATAGA | 0.0858
83 | TCACAACA | 0.0812
84 | GGGCATCA | 0.0773
85 | CCCAAAAC | 0.0732
86 | CACAAGGG | 0.0805
87 | CATATTCA | 0.0822
88 | CTTAACTA | 0.078
89 | CCGATGCG | 0.0722
90 | AAGGGTTG | 0.0757
91 | AGACAGCC | 0.0719
92 | ATCGTCGG | 0.0733
93 | AAGATATC | 0.0763
94 | ACTACAAT | 0.0765
95 | AATAAGCC | 0.0759
96 | AATTTCAG | 0.0712
97 | AATACTCG | 0.0786
98 | CACTGGAC | 0.0711
99 | AATTCAAG | 0.0775
100 | ATCTCCCC | 0.0803

Row | Sequence | binding signal (normalized occupancy)
101 | CAGGTATC | 0.0811
102 | GATATCGA | 0.0777
103 | GGAATACA | 0.0768
104 | AGCACTAT | 0.0773
105 | ATCTGATA | 0.0812
106 | TACGGCAA | 0.0763
107 | AGCTACCG | 0.07
108 | CAGAACAA | 0.0704
109 | CGTTTGCC | 0.071
110 | TGTCGGAA | 0.0763
111 | ACATTCCT | 0.0765
112 | ACCCATCC | 0.0838
113 | GTGTCTTA | 0.0793
114 | AACGTGCC | 0.096
115 | CTCCGGTC | 0.0678
116 | AGCAACGA | 0.0793
117 | ACATTGCC | 0.076
118 | ACGAAGCC | 0.0735
119 | CGGGAGAA | 0.0729
120 | TCGGCGCA | 0.0734
121 | AATCAGGA | 0.0732
122 | CAAAAATG | 0.0779
123 | CTCCCACA | 0.0801
124 | TCAAAGCA | 0.0762
125 | CAGAACGG | 0.068

Row | Sequence | binding signal (normalized occupancy)
126 | GCAATGGC | 0.0733
127 | CCCAGTAA | 0.0749
128 | CTGGGGAC | 0.0698
129 | ACAGTTCT | 0.0739
130 | GCAACGCA | 0.0727
131 | ACGTTTCA | 0.0767
132 | GCCGCAAC | 0.0694
133 | AGAGGCCA | 0.0702
134 | CTTGTACC | 0.0814
135 | AGTTATGG | 0.0782
136 | AGTACAGG | 0.0787
137 | CGTTGAAA | 0.071
138 | AAACGAAA | 0.0705
139 | GCGTATAA | 0.0755
140 | AACGGTCA | 0.074
141 | CAGACTTA | 0.0717
142 | GATTCACA | 0.0773
143 | AAGTTTAG | 0.0702
144 | GACACGAC | 0.0866
145 | ACCGTGTC | 0.072
146 | GATCAGCC | 0.0736
147 | GTGATCAC | 0.0914
148 | GTCTTCCA | 0.0718
149 | AACGGTTG | 0.0768
150 | ACAAGGCG | 0.0714

Row | Sequence | binding signal (normalized occupancy)
151 | CAAGTTGC | 0.0745
152 | ATACATTC | 0.093
153 | GCTTCTTA | 0.0746
154 | TAAGATTA | 0.0724
155 | AATACGGA | 0.0711
156 | ACGCGGCA | 0.0795
157 | CCTGAGGA | 0.0743
158 | CCTACACG | 0.0847
159 | CGTGCCAA | 0.0821
160 | CCCAACGA | 0.0762
161 | CCCGAGCC | 0.0666
162 | ACTAGATA | 0.0744
163 | CACGCCGC | 0.0912
164 | AGTATGGA | 0.0756
165 | CATGGAAA | 0.0895
166 | ATGGTTGA | 0.0815
167 | CGGTTAGA | 0.0696
168 | GGATGAAC | 0.0721
169 | CCGGATCG | 0.0706
170 | GCTAGAAC | 0.0705
171 | GTAATATA | 0.081
172 | AAATTCAC | 0.0767
